In the supplement of paper PMC11876631:
± gives the standard deviation of the averaged measurements. Laboratory Escherichia coli strains with one amino-acid change in an essential protein, pooled on minimal glucose agar with carbenicillin or gentamicin at twice the control MIC (plus kanamycin and chloramphenicol for the plasmids), 48 h. Fold change of barcode share against drug-free plates; higher = less susceptible. Active = above 20 in both replicates (the paper's putatively resistant). '<' = one read or none on drug, '>' = one read or none on a drug-free plate. Shares are relative, so most strains fall below 1 when a few take over. Listed are strains with at least 15 reads on both drug-free plates, and hits; most hits rest on fewer reference reads. Replicate rank correlation about 0.5. Edits are read from barcodes.

Target: Escherichia coli (laboratory strain)
Experiment: barcode share on antibiotic plates over drug-free plates; higher = less susceptible
Protocol: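 A pool of E. coli strains, each edited to carry one amino-acid change in an essential protein, was grown for 48 h on minimal glucose agar with or without antibiotic; strain barcodes were sequenced; mean of two replicates.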

[1] = antibiotic: carbenicillin, 2× MIC (3.1 µg/mL)
[2] = antibiotic: gentamicin, 2× MIC (MIC 0.45 µg/mL)

Protein	fold change of barcode share [1]	fold change of barcode share [2]
hisA L46A (protein) MIIPALDLIDGTVVRLHQGDYGKQRDYGNDPLPRLQDYAAQGAEVAHLVDLTGAKDPAKRQIPLIKTLVAGVNVPVQVGGGVRSEEDVAALLEAGVARVVVGSTAVKSQDMVKGWFERFGADALVLALDVRIDEQGNKQVAVSGWQENSGVSLEQLVETYLPVGLKHVLCTDISRDGTLAGSNVSLYEEVCARYPQVAFQSSGGIGDIDDVAALRGTGVRGVIVGRALLEGKFTVKEAIACWQNA	0.457 ± 0.077	0.00721 ± 0.00054
hemL V206Q (protein) MSKSENLYSAARELIPGGVNSPVRAFTGVGGTPLFIEKADGAYLYDVDGKAYIDYVGSWGPMVLGHNHPAIRNAVIEAAERGLSFGAPTEMEVKMAQLVTELVPTMDMVRMVNSGTEATMSAIRLARGFTGRDKIIKFEGCYHGHADCLLVKAGSGALTLGQPNSPGVPADFAKYTLTCTYNDLASVRAAFEQYPQEIACIIVEPQAGNMNCVPPLPEFLPGLRALCDEFGALLIIDEVMTGFRVALAGAQDYYGVVPDLTCLGKIIGGGMPVGAFGGRRDVMDALAPTGPVYQAGTLSGNPIAMAAGFACLNEVAQPGVHETLDELTTRLAEGLLEAAEEAGIPLVVNHVGGMFGIFFTDAESVTCYQDVMACDVERFKRFFHMMLDEGVYLAPSAFEAGFMSVAHSMEDINNTIDAARRVFAKL	0.458 ± 0.23	3.91 ± 2.5
hemL V203A (protein) MSKSENLYSAARELIPGGVNSPVRAFTGVGGTPLFIEKADGAYLYDVDGKAYIDYVGSWGPMVLGHNHPAIRNAVIEAAERGLSFGAPTEMEVKMAQLVTELVPTMDMVRMVNSGTEATMSAIRLARGFTGRDKIIKFEGCYHGHADCLLVKAGSGALTLGQPNSPGVPADFAKYTLTCTYNDLASVRAAFEQYPQEIACIIAEPVAGNMNCVPPLPEFLPGLRALCDEFGALLIIDEVMTGFRVALAGAQDYYGVVPDLTCLGKIIGGGMPVGAFGGRRDVMDALAPTGPVYQAGTLSGNPIAMAAGFACLNEVAQPGVHETLDELTTRLAEGLLEAAEEAGIPLVVNHVGGMFGIFFTDAESVTCYQDVMACDVERFKRFFHMMLDEGVYLAPSAFEAGFMSVAHSMEDINNTIDAARRVFAKL	0.347 ± 0.1	0.0241 ± 0.008
hemL V203Q (protein) MSKSENLYSAARELIPGGVNSPVRAFTGVGGTPLFIEKADGAYLYDVDGKAYIDYVGSWGPMVLGHNHPAIRNAVIEAAERGLSFGAPTEMEVKMAQLVTELVPTMDMVRMVNSGTEATMSAIRLARGFTGRDKIIKFEGCYHGHADCLLVKAGSGALTLGQPNSPGVPADFAKYTLTCTYNDLASVRAAFEQYPQEIACIIQEPVAGNMNCVPPLPEFLPGLRALCDEFGALLIIDEVMTGFRVALAGAQDYYGVVPDLTCLGKIIGGGMPVGAFGGRRDVMDALAPTGPVYQAGTLSGNPIAMAAGFACLNEVAQPGVHETLDELTTRLAEGLLEAAEEAGIPLVVNHVGGMFGIFFTDAESVTCYQDVMACDVERFKRFFHMMLDEGVYLAPSAFEAGFMSVAHSMEDINNTIDAARRVFAKL	0.408 ± 0.067	0.0376 ± 0.0091
hemL V99Q (protein) MSKSENLYSAARELIPGGVNSPVRAFTGVGGTPLFIEKADGAYLYDVDGKAYIDYVGSWGPMVLGHNHPAIRNAVIEAAERGLSFGAPTEMEVKMAQLQTELVPTMDMVRMVNSGTEATMSAIRLARGFTGRDKIIKFEGCYHGHADCLLVKAGSGALTLGQPNSPGVPADFAKYTLTCTYNDLASVRAAFEQYPQEIACIIVEPVAGNMNCVPPLPEFLPGLRALCDEFGALLIIDEVMTGFRVALAGAQDYYGVVPDLTCLGKIIGGGMPVGAFGGRRDVMDALAPTGPVYQAGTLSGNPIAMAAGFACLNEVAQPGVHETLDELTTRLAEGLLEAAEEAGIPLVVNHVGGMFGIFFTDAESVTCYQDVMACDVERFKRFFHMMLDEGVYLAPSAFEAGFMSVAHSMEDINNTIDAARRVFAKL	0.299 ± 0.026	0.00832 ± 0.0052
hemL I201Q (protein) MSKSENLYSAARELIPGGVNSPVRAFTGVGGTPLFIEKADGAYLYDVDGKAYIDYVGSWGPMVLGHNHPAIRNAVIEAAERGLSFGAPTEMEVKMAQLVTELVPTMDMVRMVNSGTEATMSAIRLARGFTGRDKIIKFEGCYHGHADCLLVKAGSGALTLGQPNSPGVPADFAKYTLTCTYNDLASVRAAFEQYPQEIACQIVEPVAGNMNCVPPLPEFLPGLRALCDEFGALLIIDEVMTGFRVALAGAQDYYGVVPDLTCLGKIIGGGMPVGAFGGRRDVMDALAPTGPVYQAGTLSGNPIAMAAGFACLNEVAQPGVHETLDELTTRLAEGLLEAAEEAGIPLVVNHVGGMFGIFFTDAESVTCYQDVMACDVERFKRFFHMMLDEGVYLAPSAFEAGFMSVAHSMEDINNTIDAARRVFAKL	0.336 ± 0.0026	0.010628 ± 1.7e-06
hemL V99W (protein) MSKSENLYSAARELIPGGVNSPVRAFTGVGGTPLFIEKADGAYLYDVDGKAYIDYVGSWGPMVLGHNHPAIRNAVIEAAERGLSFGAPTEMEVKMAQLWTELVPTMDMVRMVNSGTEATMSAIRLARGFTGRDKIIKFEGCYHGHADCLLVKAGSGALTLGQPNSPGVPADFAKYTLTCTYNDLASVRAAFEQYPQEIACIIVEPVAGNMNCVPPLPEFLPGLRALCDEFGALLIIDEVMTGFRVALAGAQDYYGVVPDLTCLGKIIGGGMPVGAFGGRRDVMDALAPTGPVYQAGTLSGNPIAMAAGFACLNEVAQPGVHETLDELTTRLAEGLLEAAEEAGIPLVVNHVGGMFGIFFTDAESVTCYQDVMACDVERFKRFFHMMLDEGVYLAPSAFEAGFMSVAHSMEDINNTIDAARRVFAKL	0.337 ± 0.12	< 0.00927
hemL I201P (protein) MSKSENLYSAARELIPGGVNSPVRAFTGVGGTPLFIEKADGAYLYDVDGKAYIDYVGSWGPMVLGHNHPAIRNAVIEAAERGLSFGAPTEMEVKMAQLVTELVPTMDMVRMVNSGTEATMSAIRLARGFTGRDKIIKFEGCYHGHADCLLVKAGSGALTLGQPNSPGVPADFAKYTLTCTYNDLASVRAAFEQYPQEIACPIVEPVAGNMNCVPPLPEFLPGLRALCDEFGALLIIDEVMTGFRVALAGAQDYYGVVPDLTCLGKIIGGGMPVGAFGGRRDVMDALAPTGPVYQAGTLSGNPIAMAAGFACLNEVAQPGVHETLDELTTRLAEGLLEAAEEAGIPLVVNHVGGMFGIFFTDAESVTCYQDVMACDVERFKRFFHMMLDEGVYLAPSAFEAGFMSVAHSMEDINNTIDAARRVFAKL	0.35 ± 0.3	< 0.0137
hemL I201A (protein) MSKSENLYSAARELIPGGVNSPVRAFTGVGGTPLFIEKADGAYLYDVDGKAYIDYVGSWGPMVLGHNHPAIRNAVIEAAERGLSFGAPTEMEVKMAQLVTELVPTMDMVRMVNSGTEATMSAIRLARGFTGRDKIIKFEGCYHGHADCLLVKAGSGALTLGQPNSPGVPADFAKYTLTCTYNDLASVRAAFEQYPQEIACAIVEPVAGNMNCVPPLPEFLPGLRALCDEFGALLIIDEVMTGFRVALAGAQDYYGVVPDLTCLGKIIGGGMPVGAFGGRRDVMDALAPTGPVYQAGTLSGNPIAMAAGFACLNEVAQPGVHETLDELTTRLAEGLLEAAEEAGIPLVVNHVGGMFGIFFTDAESVTCYQDVMACDVERFKRFFHMMLDEGVYLAPSAFEAGFMSVAHSMEDINNTIDAARRVFAKL	0.377 ± 0.067	0.131 ± 0.18
hemL V203P (protein) MSKSENLYSAARELIPGGVNSPVRAFTGVGGTPLFIEKADGAYLYDVDGKAYIDYVGSWGPMVLGHNHPAIRNAVIEAAERGLSFGAPTEMEVKMAQLVTELVPTMDMVRMVNSGTEATMSAIRLARGFTGRDKIIKFEGCYHGHADCLLVKAGSGALTLGQPNSPGVPADFAKYTLTCTYNDLASVRAAFEQYPQEIACIIPEPVAGNMNCVPPLPEFLPGLRALCDEFGALLIIDEVMTGFRVALAGAQDYYGVVPDLTCLGKIIGGGMPVGAFGGRRDVMDALAPTGPVYQAGTLSGNPIAMAAGFACLNEVAQPGVHETLDELTTRLAEGLLEAAEEAGIPLVVNHVGGMFGIFFTDAESVTCYQDVMACDVERFKRFFHMMLDEGVYLAPSAFEAGFMSVAHSMEDINNTIDAARRVFAKL	8.57 ± 4.2	
hemL V99A (protein) MSKSENLYSAARELIPGGVNSPVRAFTGVGGTPLFIEKADGAYLYDVDGKAYIDYVGSWGPMVLGHNHPAIRNAVIEAAERGLSFGAPTEMEVKMAQLATELVPTMDMVRMVNSGTEATMSAIRLARGFTGRDKIIKFEGCYHGHADCLLVKAGSGALTLGQPNSPGVPADFAKYTLTCTYNDLASVRAAFEQYPQEIACIIVEPVAGNMNCVPPLPEFLPGLRALCDEFGALLIIDEVMTGFRVALAGAQDYYGVVPDLTCLGKIIGGGMPVGAFGGRRDVMDALAPTGPVYQAGTLSGNPIAMAAGFACLNEVAQPGVHETLDELTTRLAEGLLEAAEEAGIPLVVNHVGGMFGIFFTDAESVTCYQDVMACDVERFKRFFHMMLDEGVYLAPSAFEAGFMSVAHSMEDINNTIDAARRVFAKL	0.294 ± 0.1	< 0.0079
hemL V203D (protein) MSKSENLYSAARELIPGGVNSPVRAFTGVGGTPLFIEKADGAYLYDVDGKAYIDYVGSWGPMVLGHNHPAIRNAVIEAAERGLSFGAPTEMEVKMAQLVTELVPTMDMVRMVNSGTEATMSAIRLARGFTGRDKIIKFEGCYHGHADCLLVKAGSGALTLGQPNSPGVPADFAKYTLTCTYNDLASVRAAFEQYPQEIACIIDEPVAGNMNCVPPLPEFLPGLRALCDEFGALLIIDEVMTGFRVALAGAQDYYGVVPDLTCLGKIIGGGMPVGAFGGRRDVMDALAPTGPVYQAGTLSGNPIAMAAGFACLNEVAQPGVHETLDELTTRLAEGLLEAAEEAGIPLVVNHVGGMFGIFFTDAESVTCYQDVMACDVERFKRFFHMMLDEGVYLAPSAFEAGFMSVAHSMEDINNTIDAARRVFAKL	0.735 ± 0.14	0.0329 ± 0.017
